The campaign covered roughly 310,000 compounds. About 14,000 (4.5%) showed an effect of 50% or more. The effect is printed as a negative number. The list shows a part of the results.
biological target: human ether-à-go-go-related gene (hERG) potassium channel (human, UniProt Q12809); test: primary screen, population patch clamp on CHO cells stably expressing hERG
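Note: peak tail current of the secondary pulse compared with the same well before compound.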

Chain of human ether-à-go-go-related gene (hERG) potassium channel (Q12809 whole entry, looked up): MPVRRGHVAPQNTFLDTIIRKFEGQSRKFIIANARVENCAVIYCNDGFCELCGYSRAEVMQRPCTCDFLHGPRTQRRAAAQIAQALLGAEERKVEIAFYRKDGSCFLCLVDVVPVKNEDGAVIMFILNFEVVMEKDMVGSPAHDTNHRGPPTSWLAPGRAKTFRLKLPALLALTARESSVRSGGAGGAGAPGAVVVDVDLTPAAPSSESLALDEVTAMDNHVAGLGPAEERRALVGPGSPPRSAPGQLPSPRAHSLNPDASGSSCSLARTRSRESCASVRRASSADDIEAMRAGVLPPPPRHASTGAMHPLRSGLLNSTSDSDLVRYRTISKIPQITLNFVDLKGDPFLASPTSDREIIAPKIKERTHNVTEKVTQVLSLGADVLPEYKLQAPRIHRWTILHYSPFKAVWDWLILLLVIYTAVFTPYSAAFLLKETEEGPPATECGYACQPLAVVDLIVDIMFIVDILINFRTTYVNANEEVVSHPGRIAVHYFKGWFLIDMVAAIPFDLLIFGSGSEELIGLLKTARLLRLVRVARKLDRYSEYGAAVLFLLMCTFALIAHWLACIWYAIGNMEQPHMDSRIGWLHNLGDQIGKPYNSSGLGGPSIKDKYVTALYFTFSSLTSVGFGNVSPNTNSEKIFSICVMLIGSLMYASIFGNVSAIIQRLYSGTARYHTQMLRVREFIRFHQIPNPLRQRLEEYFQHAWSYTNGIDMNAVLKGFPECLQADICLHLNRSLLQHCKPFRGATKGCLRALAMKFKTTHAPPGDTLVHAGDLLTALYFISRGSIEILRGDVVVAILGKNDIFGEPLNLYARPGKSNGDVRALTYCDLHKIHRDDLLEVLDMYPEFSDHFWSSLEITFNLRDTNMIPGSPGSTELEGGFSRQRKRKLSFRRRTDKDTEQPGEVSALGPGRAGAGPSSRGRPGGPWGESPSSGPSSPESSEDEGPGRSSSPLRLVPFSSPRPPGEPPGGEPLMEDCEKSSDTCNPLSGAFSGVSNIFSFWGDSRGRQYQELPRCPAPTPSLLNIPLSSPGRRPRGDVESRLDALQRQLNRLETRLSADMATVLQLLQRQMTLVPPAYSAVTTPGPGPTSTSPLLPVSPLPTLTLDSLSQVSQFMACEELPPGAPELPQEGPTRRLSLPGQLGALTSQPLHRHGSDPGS

Row | Structure (SMILES) | hERG current change (%, negative = inhibition) at 10uM [%]
1 | CC(=O)N1CCN(c2ccccc2NC(=O)COc2cc(C)cc(C)c2)CC1 | -52.4
2 | COCCn1cnnc1SCC(=O)Nc1cccc(S(=O)(=O)N2CCCCCC2)c1 | -60.3
3 | CCc1ccccc1OCC(=O)Nc1nc(-c2cccnc2)cs1 | 3.46
4 | CC(Oc1ccccc1)C(=O)N1CCN=C1SCc1cccc(F)c1 (centres unmarked) | -21.5
5 | CCOC(=O)C1CCN(C(=O)Nc2cccc(OC)c2)CC1 | 9.66
6 | COc1ccc(CNC(=O)CSc2nc3ccc(C)cc3[nH]2)cc1OC | 12
7 | CCc1nn(CCCC(=O)NCc2ccccc2Br)c(=O)c2cc3occc3n12 | -30.5
8 | COc1ccccc1C(CC(=O)O)NS(=O)(=O)c1ccc2c(c1)N(C(C)=O)CC(C)O2 (centres unmarked) | 25.8
9 | CCCCN(C(=O)CSc1nnc(-c2ccc(OC)cc2)n1CC)c1c(N)n(Cc2ccccc2)c(=O)[nH]c1=O | 0.535
10 | O=C(NCc1ccccc1)NCC12CC3CC(CC(C3)C1)C2 | 17.5
11 | COc1ccc(C(=O)NC(=S)N2CCCCC2)cc1[N+](=O)[O-] | 7.57
12 | Cc1csc(=O)n1CCC(=O)OCC(=O)Nc1cccc(C#N)c1 | -25.3
13 | COc1ccccc1N1C(=NC(=O)CCC2CCCC2)SC2CS(=O)(=O)CC21 (centres unmarked) | 16.4
14 | NC(=O)c1ccsc1NC(=O)COC(=O)/C=C/c1ccc([N+](=O)[O-])cc1 | -9.32
15 | CNC(C(=O)c1ccccc1)C(OC(C)=O)c1cccc([N+](=O)[O-])c1.[O-][Cl+3]([O-])([O-])O (centres unmarked) | 13.3
16 | COc1ccc(S(=O)(=O)Nc2cccnc2)c(C)c1C | -6
17 | COc1ccc(C(=O)NN)cc1 | 0.991
18 | CCC(C)Sc1ccc([C@H]2N[C@@](C)(C(=O)OC)[C@H]3C(=O)N(CC)C(=O)[C@@H]23)cc1.O=C(O)C(F)(F)F (some centres unmarked) | 7.25
19 | CC(C)CCNC(=O)Cn1cc2c(n1)CCCCC2 | 4.9

Row | Structure (SMILES) | hERG current change (%, negative = inhibition) at 10uM [%]
20 | Cc1cc(C)cc(C(=O)N[C@@H](C)C(=O)N2CCC3(CC2)NCCc2[nH]cnc23)c1 | 24.5
21 | CN1CCN(C(=O)c2ccc3c(c2)N(Cc2cccc(Cl)c2)C(=O)c2ccccc2S3=O)CC1 (centres unmarked) | -19.5
22 | O=C(OCC(=O)N1CCCC1=O)c1ccc(F)c(S(=O)(=O)N2CCOCC2)c1 | -2.99
23 | O=C(NNS(=O)(=O)c1ccc(F)cc1)c1ccc2c(c1)OCO2 | 6.1
24 | c1ccc2c(c1)c1ccccc1n2CN1CCOCC1 | -3.56
25 | COc1cccc(/C=N/NC(=O)c2cccc3ccccc23)c1 | 5.29
26 | Br.C=CCn1c(=N)n(CC(=O)OCC)c2ccccc21 | 5.36
27 | COc1cc(OC)c(NC(=O)[C@@H]2CCC(=O)N2C2OC(=O)c3c2ccc(OC)c3OC)cc1Cl (some centres unmarked) | -25.7
28 | COc1ccccc1N(C)S(=O)(=O)c1ccc(C(=O)Nc2ncc(C)s2)cc1 | 14.3
29 | CC(C)Nc1nc(NC(C)C)nc(C(=O)OCCO)n1 | 19
30 | CN(CCNC(=O)c1cc2c(-c3ccccc3F)nn(C)c2s1)C1CCCCC1 | -50.8
31 | CCCc1c(C(=O)Nc2ccc(OC)cc2)cnn1-c1ccccc1 | 10.1
32 | Cc1ccc(C(=O)N/N=C/c2c(O)ccc3ccccc23)cn1 | 12.6
33 | COc1cc(OC)cc(C(=O)NC2=NCCS2)c1 | 1.69
34 | C=CCn1c(O)c(N=NC(=S)Nc2ccccc2C)c2cc(S(=O)(=O)N3CCOCC3)ccc21 | 16.3
35 | COc1ccc(CCCc2nnc(SCC(=O)N/N=C\c3ccc(O)c(OC)c3)o2)cc1C | 13.2
36 | CCN1CCN(CC(O)COCCOc2ccc(Br)cc2)CC1.Cl (centres unmarked) | -12.3
37 | Cc1ccc(C(=O)Oc2ccc(C(=S)N3CCOCC3)cc2)cc1 | -7.84
38 | CCc1nnc(NC(=O)CSc2ccc(-c3nc4ccccc4[nH]3)cn2)s1 | 5.82

Row | Structure (SMILES) | hERG current change (%, negative = inhibition) at 10uM [%]
39 | CCN(CC)c1nc(N)nc(NS(=O)(=O)c2ccc(Cl)cc2)n1 | -6.14
40 | O=C(NCCCCNC(=O)c1ccc(Br)s1)c1ccc(Br)s1 | 0.848
41 | CCOc1ccc(CCNC(=O)c2nnn(CC(=O)Nc3ccc(C)cc3)c2N)cc1OCC | -0.277
42 | CCN1CCN(C(=S)NCC2CCCO2)CC1.O=C(O)C(=O)O (centres unmarked) | 13.2
43 | O=C1CC(Nc2ccc(N3CCOCC3)cc2)C(=O)N1c1cccc(C(F)(F)F)c1 (centres unmarked) | -1.55
44 | Cc1nc(N/N=C\c2ccc3c(c2)OCO3)sc1C | 20.4
45 | O=C(Cc1ccccc1[N+](=O)[O-])NNC(=O)c1cccs1 | 13.6
46 | Cc1ccc(/C=N/NC(=O)c2cccc(NC(=O)c3ccccc3C)c2)o1 | -16.8
47 | Cn1c(=O)c(Nc2ccc(Cl)cc2)c2c3c(cccc31)C(=O)c1ccccc1-2 | 6.18
48 | Cc1ccccc1NC(=O)Nc1ccccc1C(N)=O | 16.3
49 | CC1(C)CC(=O)C(CC2=C(O)CC(C)(C)CC2=O)C(=O)C1 | 15
50 | CCOC(=O)/C(=C\C=C\c1ccccc1)NC(=O)c1ccccc1 | -39.2
51 | CN(Cc1ccccc1)C(=O)c1ccc(NC(=O)Cc2cccc(NC(=O)C3CCCN(C(=O)C4CCCCC4)C3)c2)cc1 (centres unmarked) | 4.11
52 | CCOC(=O)C(=Cc1ccc(F)cc1)C(=O)OCC | 1.06
53 | O=Cc1cn(Cc2cccc([N+](=O)[O-])c2)c2ccccc12 | -47.8
54 | Fc1ccc(CNc2nc(-c3ccco3)cc(C(F)(F)F)n2)cc1 | 12.6
55 | Cn1ncc(Br)c1C(=O)NC1CCCCCC1 | -24.7
56 | Cc1ccc(NC(=O)c2ccc(S(=O)(=O)N3CCOCC3)cc2)c(C)c1 | 7.5

Reference: article PMC4336329 (PLoS ONE, 2015)
